# Laboratory results as given in the supplement of paper PMC8728848.
# This is one part of the list.
# Assays:
# Experiment in all cases: glycan array binding signal (z-score within array); higher = stronger binding
# Settings in all cases: glycan notation: IUPAC condensed, linker removed
# [1] = molecular target: Fuc(a1-2)[Gal(a1-3)]Gal(b1-4)GlcNAc(b1-2)Man(a1-3)[Fuc(a1-2)[Gal(a1-3)]Gal(b1-4)GlcNAc(b1-2)Man(a1-6)]Man(b1-4)GlcNAc(b1-4)GlcNAc
# How it was run: (§1)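 Negative Z-scores can be read as non-binding. The Z-score is calculated within each array and then averaged across arrays of one protein sequence at different concentrations or buffers and across linkers. Arrays, 3228 in all, were curated from the Consortium for Functional Glycomics database and kept only where the protein sequence was available.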
# [2] = molecular target: Fuc(a1-2)[Gal(a1-3)]Gal(b1-4)[Fuc(a1-3)]GlcNAc
# How it was run: as §1
# [3] = molecular target: Fuc(a1-2)[Gal(a1-4)]Gal(b1-4)GlcNAc
# How it was run: as §1
# [4] = molecular target: Fuc(a1-2)[GalNAc(a1-3)]Gal
# How it was run: as §1
# [5] = molecular target: Fuc(a1-2)[GalNAc(a1-3)]Gal(b1-3)GlcNAc
# How it was run: as §1
# [6] = molecular target: Fuc(a1-2)[GalNAc(a1-3)]Gal(b1-3)GlcNAc(b1-2)Man(a1-3)[Fuc(a1-2)[GalNAc(a1-3)]Gal(b1-3)GlcNAc(b1-2)Man(a1-6)]Man(b1-4)GlcNAc(b1-4)GlcNAc
# How it was run: as §1
# [7] = molecular target: Fuc(a1-2)[GalNAc(a1-3)]Gal(b1-4)Glc
# How it was run: as §1
# [8] = molecular target: Fuc(a1-2)[GalNAc(a1-3)]Gal(b1-4)GlcNAc
# How it was run: as §1
# [9] = molecular target: Fuc(a1-2)[GalNAc(a1-3)]Gal(b1-4)GlcNAc(b1-2)Man(a1-3)[GalNAc(a1-3)[Fuc(a1-2)]Gal(b1-4)GlcNAc(b1-2)Man(a1-6)]Man(b1-4)GlcNAc(b1-4)GlcNAc
# How it was run: as §1
# [10] = molecular target: Fuc(a1-2)[GalNAc(a1-3)]Gal(b1-4)GlcNAc(b1-3)Gal(b1-4)GlcNAc
# How it was run: as §1
# [11] = molecular target: Fuc(a1-2)[GalNAc(a1-3)]Gal(b1-4)GlcNAc(b1-3)Gal(b1-4)GlcNAc(b1-3)Gal(b1-4)GlcNAc
# How it was run: as §1
# [12] = molecular target: Fuc(a1-2)[GalNAc(a1-3)]Gal(b1-4)[Fuc(a1-3)]GlcNAc
# How it was run: as §1
# [13] = molecular target: Fuc(a1-2)[GalNAc(a1-4)]Gal(b1-4)GlcNAc
# How it was run: as §1
# [14] = molecular target: Fuc(a1-2)[GalNAc(b1-3)]Gal
# How it was run: as §1
# [15] = molecular target: Fuc(a1-3)GlcNAc
# How it was run: as §1
# [16] = molecular target: Fuc(a1-3)[Gal(b1-4)]Glc6S
# How it was run: as §1
# [17] = molecular target: Fuc(a1-3)[Gal(b1-4)]GlcNAc
# How it was run: as §1
# [18] = molecular target: Fuc(a1-3)[Gal(b1-4)]GlcNAc(b1-2)Man(a1-3)[Fuc(a1-3)[Gal(b1-4)]GlcNAc(b1-2)Man(a1-6)]Man(b1-4)GlcNAc(b1-4)GlcNAc
# How it was run: as §1
# [19] = molecular target: Fuc(a1-3)[Gal(b1-4)]GlcNAc(b1-2)Man(a1-6)[Gal(b1-4)GlcNAc(b1-2)Man(a1-3)]Man(b1-4)GlcNAc(b1-4)GlcNAc
# How it was run: as §1
# [20] = molecular target: Fuc(a1-3)[Gal(b1-4)]GlcNAc(b1-3)Gal(b1-3)[Fuc(a1-4)]GlcNAc
# How it was run: as §1
# [21] = molecular target: Fuc(a1-3)[Gal(b1-4)]GlcNAc(b1-4)Gal(b1-4)[Fuc(a1-3)]GlcNAc
# How it was run: as §1
# [22] = molecular target: Fuc(a1-3)[Gal(b1-4)]GlcNAc(b1-4)Gal(b1-4)[Fuc(a1-3)]GlcNAc(b1-4)Gal(b1-4)[Fuc(a1-3)]GlcNAc
# How it was run: as §1
# [23] = molecular target: Fuc(a1-3)[Gal(b1-4)]GlcNAc6S
# How it was run: as §1
# [24] = molecular target: Fuc(a1-3)[Gal3S(b1-4)]Glc6S
# How it was run: as §1
# [25] = molecular target: Fuc(a1-3)[Gal3S(b1-4)]GlcNAc
# How it was run: as §1
# [26] = molecular target: Fuc(a1-3)[Gal3S(b1-4)]GlcNAc6S
# How it was run: as §1
# [27] = molecular target: Fuc(a1-3)[GalNAc(b1-4)]GlcNAc
# How it was run: as §1
# [28] = molecular target: Fuc(a1-3)[Neu5Ac(a2-3)]Gal(b1-4)GlcNAc(b1-3)GalNAc
# How it was run: as §1
# [29] = molecular target: Fuc(a1-4)GlcNAc
# How it was run: as §1
# [30] = molecular target: Fuc(b1-3)GlcNAc
# How it was run: as §1
binder,measurement,setting,value
"Sialidase (Vibrio cholerae), P37060 (protein) GAMALFDYNATGDTEFDSPAKQGWMQDNTNNGSGVLTNADGMPAWLVQGIGGRAQWTYSLSTNQHAQASSFGWRMTTEMKVLSGGMITNYYANGTQRVLPIISLDSSGNLVVEFEGQTGRTVLATGTAATEYHKFELVFLPGSNPSASFYFDGKLIRDNIQPTASKQNMIVWGNGSSNTDGVAAYRDIKFEIQGDALNGSMALFDYNATGDTEFDSPAKQGWMQDNTNNGSGVLTNADGMPAWLVQGIGGRAQWTYSLSTNQHAQASSFGWRMTTEMKVLSGGMITNYYANGTQRVLPIISLDSSGNLVVEFEGQTGRTVLATGTAATEYHKFELVFLPGSNPSASFYFDGKLIRDNIQPTASKQNMIVWGNGSSNTDGVAAYRDIKFEIQGDLQALGMALFDYNATGDTEFDSPAKQGWMQDNTNNGSGVLTNADGMPAWLVQGIGGRAQWTYSLSTNQHAQASSFGWRMTTEMKVLSGGMITNYYANGTQRVLPIISLDSSGNLVVEFEGQTGRTVLATGTAATEYHKFELVFLPGSNPSASFYFDGKLIRDNIQPTASKQNMIVWGNGSSNTDGVAAYRDIKFEIQGD",glycan array binding signal (z-score),[1],-0.105
same,glycan array binding signal (z-score),[2],0.119
same,glycan array binding signal (z-score),[3],-0.321
same,glycan array binding signal (z-score),[4],-0.425
same,glycan array binding signal (z-score),[5],-0.413
same,glycan array binding signal (z-score),[6],-0.659
same,glycan array binding signal (z-score),[7],-0.532
same,glycan array binding signal (z-score),[8],-0.297
same,glycan array binding signal (z-score),[9],0.218
same,glycan array binding signal (z-score),[10],-0.393
same,glycan array binding signal (z-score),[11],0.886
same,glycan array binding signal (z-score),[12],-0.537
same,glycan array binding signal (z-score),[13],-0.635
same,glycan array binding signal (z-score),[14],-0.589
same,glycan array binding signal (z-score),[15],-0.622
same,glycan array binding signal (z-score),[16],0.405
same,glycan array binding signal (z-score),[17],-0.499
same,glycan array binding signal (z-score),[18],-0.346
same,glycan array binding signal (z-score),[19],-0.675
same,glycan array binding signal (z-score),[20],-0.288
same,glycan array binding signal (z-score),[21],-0.513
same,glycan array binding signal (z-score),[22],-0.314
same,glycan array binding signal (z-score),[23],-0.047
same,glycan array binding signal (z-score),[24],0.597
same,glycan array binding signal (z-score),[25],-0.275
same,glycan array binding signal (z-score),[26],-0.202
same,glycan array binding signal (z-score),[27],-0.6
same,glycan array binding signal (z-score),[28],-0.125
same,glycan array binding signal (z-score),[29],-0.46
same,glycan array binding signal (z-score),[30],-0.673
